Laboratory results: the supplement of paper PMC4604168 (melanoma cell lines)
The other results are listed elsewhere or left out. Repeats are few or missing, and single values can be far off.

Each compound was assayed on MEL-HO (assay: cell count relative to DMSO control; melanoma cells; higher = more viable cells). Conditions: library dose: standard library concentration; 72 h.
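Note: cells treated in 1,536-well plates, then fixed and DAPI-stained, with nuclei counted from automated high-throughput microscope images.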

Row | SMILES | cell count [%]
1 | Oc1nc(-c2ccc(C(F)(F)F)cc2)nc2c1CSCC2 + COc1cc(N2CCC(N3CCN(C)CC3)CC2)ccc1Nc1ncc(Cl)c(Nc2ccccc2S(=O)(=O)C(C)C)n1 [NVP-TAE684] (first compound 10 µM, partner dose 0.4 µM) | 82.6
2 | COc1ccc(-c2ccc3c(N4CCOCC4)nc(N4C[C@@H](C)O[C@@H](C)C4)nc3n2)cc1CO + O=S(=O)(c1ccccc1)N(CC(F)(F)F)c1ccc(C(O)(C(F)(F)F)C(F)(F)F)cc1 [T0901317] (first compound 0.1 µM, partner dose 7 µM) | 77.2
3 | COc1ccc(COc2ccc(Cc3cnc(N)nc3N)cc2OC)cc1 + CC(C)CCN1c2nc(Nc3cc(F)c(O)c(F)c3)ncc2N(C)C(=O)C1C [BID1870] (first compound 5 µM, partner dose 1 µM) | 64.9
4 | c1cc(-c2cnn3cc(-c4ccc(OCCN5CCCCC5)cc4)cnc23)ccn1 [Dorsomorphin] + CC(C)CCN1c2nc(Nc3cc(F)c(O)c(F)c3)ncc2N(C)C(=O)C1C [BID1870] (first compound 2 µM, partner dose 1 µM) | 62.5
5 | N#Cc1c(O)c2c(-c3ccc(-c4ccccc4O)cc3)csc2[nH]c1=O + O=c1cc(-c2cccc3c2Sc2ccccc2S3)oc(N2CCOCC2)c1 [KU55933] (first compound 10 µM, partner dose 5 µM) | 71.4
6 | N#Cc1c(O)c2c(-c3ccc(-c4ccccc4O)cc3)csc2[nH]c1=O + CCN(CC)CCCCNc1ncc2cc(-c3cc(OC)cc(OC)c3)c(NC(=O)NC(C)(C)C)nc2n1 [PD173074] (first compound 10 µM, partner dose 0.5 µM) | 90.2
